Data as given in paper PMC4336329 (PLoS ONE, 2015).
In all, about 310,000 compounds went through this assay and about 2,200 (0.71%) showed an effect of 50% or more. The effect is printed as a negative number. The list shows a part of the results.

These molecules were tested against human ether-à-go-go-related gene (hERG) potassium channel (human, UniProt Q12809) (assay: primary screen, population patch clamp on CHO cells stably expressing hERG).
Chain of human ether-à-go-go-related gene (hERG) potassium channel (Q12809 whole entry, looked up): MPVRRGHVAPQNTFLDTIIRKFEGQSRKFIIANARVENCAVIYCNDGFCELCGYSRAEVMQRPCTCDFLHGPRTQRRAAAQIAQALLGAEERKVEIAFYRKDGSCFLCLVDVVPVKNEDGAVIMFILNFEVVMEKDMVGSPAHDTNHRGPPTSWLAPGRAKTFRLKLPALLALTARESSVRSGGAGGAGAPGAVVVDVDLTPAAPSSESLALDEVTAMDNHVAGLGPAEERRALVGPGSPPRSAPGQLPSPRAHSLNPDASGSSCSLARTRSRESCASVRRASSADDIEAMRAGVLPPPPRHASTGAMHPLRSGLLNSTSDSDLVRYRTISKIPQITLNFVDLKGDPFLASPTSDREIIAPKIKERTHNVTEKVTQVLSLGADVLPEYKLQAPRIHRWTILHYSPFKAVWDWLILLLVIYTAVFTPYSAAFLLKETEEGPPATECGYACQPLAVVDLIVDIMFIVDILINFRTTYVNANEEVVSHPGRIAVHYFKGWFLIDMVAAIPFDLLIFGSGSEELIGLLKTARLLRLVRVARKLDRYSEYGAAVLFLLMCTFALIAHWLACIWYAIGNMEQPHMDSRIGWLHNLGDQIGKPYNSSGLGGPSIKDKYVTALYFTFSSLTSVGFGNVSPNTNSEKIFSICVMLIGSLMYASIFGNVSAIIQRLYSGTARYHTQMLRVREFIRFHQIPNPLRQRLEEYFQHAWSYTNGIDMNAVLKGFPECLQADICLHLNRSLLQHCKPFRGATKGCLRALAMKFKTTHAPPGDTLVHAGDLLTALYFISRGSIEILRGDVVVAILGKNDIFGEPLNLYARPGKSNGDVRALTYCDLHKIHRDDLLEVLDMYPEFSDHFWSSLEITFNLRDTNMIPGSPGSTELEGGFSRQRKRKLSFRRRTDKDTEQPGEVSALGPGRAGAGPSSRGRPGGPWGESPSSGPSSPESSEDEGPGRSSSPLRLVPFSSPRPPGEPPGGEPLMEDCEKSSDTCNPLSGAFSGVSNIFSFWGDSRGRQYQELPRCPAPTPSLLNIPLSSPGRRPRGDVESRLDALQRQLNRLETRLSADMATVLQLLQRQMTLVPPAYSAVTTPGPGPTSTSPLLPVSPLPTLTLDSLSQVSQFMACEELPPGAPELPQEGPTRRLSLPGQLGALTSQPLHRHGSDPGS

SMILES	hERG current change (%, negative = inhibition) at 1uM [%]
c1ccc(C2C3=C(CCCC3)Nc3ncnn32)cc1 (centres unmarked)	12.9
COc1ccc(Cc2nc3ccc(C(=O)N(C)C(C)c4ccon4)cc3o2)cc1 (centres unmarked)	3.42
COc1ccc(-c2nc(-c3ccccc3)c(-c3cc([N+](=O)[O-])ccc3C)[nH]2)cc1OC	12.6
Cc1ccc(-n2ncc3c(=O)n(CC(=O)N4CCN(c5ccccc5)CC4)cnc32)cc1C	2.17
Cc1cc2nc(-c3cc(N4CCOCC4)ccc3[N+](=O)[O-])ccn2n1	-3.97
CCOC(=O)/C(C#N)=C1/C=CNC(=O)N1	7.31
Cc1ccsc1C(=O)NNC(=O)COc1ccccc1Cl	12.4
CC(NC(=O)NC12CC3CC(CC(C3)C1)C2)C1CCCO1 (centres unmarked)	9.8
CN(C)C(=O)N1CCC(C(=O)N2CCCC(C(=O)c3cccc4ccccc34)C2)CC1 (centres unmarked)	9.45
O=C(O)CC/C(=N\Nc1ccccc1[N+](=O)[O-])c1cccs1	12.8
O=C(Nc1nccs1)c1ccc(NC(=O)C2CC=CCC2C(=O)O)cc1 (centres unmarked)	5.58
C=C(C)C1CC=C(C)/C(=N/NC(=O)CNc2ccc(C)cc2C)C1 (centres unmarked)	11.4
C[C@@]12CCC3[C@@](CCC4[C@@]3(C)CCC[C@@]4(C)C(=O)Nc3ccc(Cl)cc3)(CC1=O)C2 (some centres unmarked)	4.89
COc1ccc(NC(=O)c2cccc(N3C(=O)C4CCC(C)CC4C3=O)c2)c(OC)c1 (centres unmarked)	3.92
Clc1ccc2oc(-c3ccccn3)nc2c1	14.7
CCC(C)c1ccccc1N=Cc1ccc2c(c1)OCO2 (centres unmarked)	7.08
Cc1ccc(N(C(=O)c2sc(C)nc2C)C(C(=O)NCc2ccco2)c2ccccc2)cc1 (centres unmarked)	-0.8
COc1ccccc1NC(=S)NC1CC2CCC1C2 (centres unmarked)	11.3
CCc1sc(N2C(=O)C3C4CCC(C4=C(C)C)C3C2=O)nc1-c1ccccc1 (centres unmarked)	0.0275

SMILES	hERG current change (%, negative = inhibition) at 1uM [%]
Cc1csc(=Nc2ccccc2)n1CCCN1CCCC1=O	11.5
C[C@@H]1CCC[C@@]2(O[C@H](CCO)C[C@@H](O)[C@@H]2O)O1	10.3
Cc1csc(NC(=O)CN(C)S(=O)(=O)c2cccc3cccnc23)n1	-5.55
O=C1OC(/C(=C\Nc2ccccc2)[N+](=O)[O-])c2ccccc21 (centres unmarked)	10.6
Cl.NC1=NCc2ccccc21	6.42
CCN1CCN(C(=O)c2ccc(OC3CCN(CCc4ccccc4)CC3)cc2)[C@@H](C)C1=O	13.3
Cc1ccc(C(=O)Nc2ccc(NC(=O)c3cccs3)cc2)c(C)c1	12.3
CC(=O)Oc1ccc(/C=N/NC(=O)C2CCCN2S(=O)(=O)c2ccc(Cl)cc2)cc1 (centres unmarked)	0.349
C=CCn1c(O)c(N=NC(=S)Nc2ccccc2C)c2cc(S(=O)(=O)N3CCOCC3)ccc21	9.08
COc1ccc(CCCc2nnc(SCC(=O)N/N=C\c3ccc(O)c(OC)c3)o2)cc1C	15
COc1cc(OC)cc(C(=O)NC2=NCCS2)c1	7.38
Cc1ccc(C(=O)Oc2ccc(C(=S)N3CCOCC3)cc2)cc1	8.94
CCN1CCN(CC(O)COCCOc2ccc(Br)cc2)CC1.Cl (centres unmarked)	8.18
O=C1CC(Nc2ccc(N3CCOCC3)cc2)C(=O)N1c1cccc(C(F)(F)F)c1 (centres unmarked)	5.71
O=C(NCCCCNC(=O)c1ccc(Br)s1)c1ccc(Br)s1	4.22
CCOc1ccc(CCNC(=O)c2nnn(CC(=O)Nc3ccc(C)cc3)c2N)cc1OCC	15.2
CCN1CCN(C(=S)NCC2CCCO2)CC1.O=C(O)C(=O)O (centres unmarked)	5.97
CCc1nnc(NC(=O)CSc2ccc(-c3nc4ccccc4[nH]3)cn2)s1	10.6
CCN(CC)c1nc(N)nc(NS(=O)(=O)c2ccc(Cl)cc2)n1	-3.13

SMILES	hERG current change (%, negative = inhibition) at 1uM [%]
CCOC(=O)C(=Cc1ccc(F)cc1)C(=O)OCC	4.39
CC1(C)CC(=O)C(CC2=C(O)CC(C)(C)CC2=O)C(=O)C1	9.74
CCOC(=O)/C(=C\C=C\c1ccccc1)NC(=O)c1ccccc1	-12.1
CN(Cc1ccccc1)C(=O)c1ccc(NC(=O)Cc2cccc(NC(=O)C3CCCN(C(=O)C4CCCCC4)C3)c2)cc1 (centres unmarked)	10.3
O=C(Cc1ccccc1[N+](=O)[O-])NNC(=O)c1cccs1	14.2
Cn1c(=O)c(Nc2ccc(Cl)cc2)c2c3c(cccc31)C(=O)c1ccccc1-2	14.9
Cc1ccc(/C=N/NC(=O)c2cccc(NC(=O)c3ccccc3C)c2)o1	-2.6
Cc1ccccc1NC(=O)Nc1ccccc1C(N)=O	12.8
Cc1nc(N/N=C\c2ccc3c(c2)OCO3)sc1C	16.4
Cc1ccc(NC(=O)c2ccc(S(=O)(=O)N3CCOCC3)cc2)c(C)c1	16.1
COc1ccc(Cl)cc1Nc1nc(-c2sc(NC(=O)CC(C)C)nc2C)cs1	11.1
Fc1ccc(CNc2nc(-c3ccco3)cc(C(F)(F)F)n2)cc1	14.4
Cn1ncc(Br)c1C(=O)NC1CCCCCC1	3.27
O=Cc1cn(Cc2cccc([N+](=O)[O-])c2)c2ccccc12	-10.1
O=C(Nc1ccc2c(c1)OCO2)C1CCN(C(=O)c2ccc(Br)cc2)CC1	-42.3
CC(C)(C)c1ccc(OCC(=O)N/N=C/C2CC=CCC2)cc1 (centres unmarked)	12.7
CCc1cccc(C)c1NC(=O)c1ccoc1C	11.7
Cc1cc(C(F)(F)F)nn1CC(=O)NNC(=S)NCC(C)C	-0.182
